Assay results: PubChem BioAssay AID485294 (National Center for Advancing Translational Sciences (NCATS), 2010)
Screen size: about 370,000 compounds; about 150 (0.041%) were called active. Inconclusive means that the source gave no clear call. Such entries were picked first, then a sample of the others. Calls follow the shape of the dose curve; as a rule, active = well fitted inhibition curve with a large enough effect; inconclusive = small, poorly fitted or top-dose-only effect; inactive = flat fitted curve, though single readings scatter. No potency is given beside an inconclusive call; the fits are too rough.

Molecular target: Beta-lactamase (Escherichia coli (strain K12)) (UniProt P00811)
Chain of UniProt P00811 (P00811 whole entry, looked up): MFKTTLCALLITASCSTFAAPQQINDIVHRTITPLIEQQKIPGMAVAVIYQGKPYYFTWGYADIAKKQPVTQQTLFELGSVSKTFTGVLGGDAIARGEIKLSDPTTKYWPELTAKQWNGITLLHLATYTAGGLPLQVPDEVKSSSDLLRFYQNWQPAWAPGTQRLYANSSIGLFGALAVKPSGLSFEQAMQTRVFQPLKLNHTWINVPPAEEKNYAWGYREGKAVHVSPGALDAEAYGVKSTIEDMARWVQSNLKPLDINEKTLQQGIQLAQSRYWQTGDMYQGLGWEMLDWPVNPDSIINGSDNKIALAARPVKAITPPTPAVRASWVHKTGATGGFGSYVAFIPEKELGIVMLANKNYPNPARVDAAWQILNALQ
Experiment: qHTS Inhibitors of AmpC Beta-Lactamase (assay with detergent); also: nearly all actives have a fitted effect of over 25% in size
Conditions: AmpC hydrolysis of nitrocefin, absorbance 480 nm, 0.01% Triton; series mostly up to 114 µM
Procedure, shortened: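 20 mM phosphate pH 7.0 + 0.01% (detergent screen) or 0.0001% Triton X-100; 5.3 nM AmpC reagent; cpd preinc 15 min RT; nitrocefin (800 uM stock) to start; A480 q20 s × 4 min; Activity was normalised to no-enzyme and no-compound control wells.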
Potency is read from the fitted curve at half-maximal effect; tags tell the direction and shape of the fitted curve.

| Structure (SMILES) | Potency |
| --- | --- |
| O=C(CSc1nnc2ccccn12)NNC(=O)c1ccc([N+](=O)[O-])cc1 | inconclusive [inhibitor, full curve, poor fit] |
| N#Cc1ccccc1COC(=O)CCC(=O)c1cccs1 | inconclusive [inhibitor, full curve, poor fit] |
| CC1CCc2c(sc(NC(=O)C(=O)NCc3ccco3)c2C#N)C1 (stereo unspecified) | inconclusive [inhibitor, full curve, poor fit] |
| Cc1cccc(NC(=O)c2sc3nc4c(cc3c2N)CN(C(C)C)CC4)c1 | inactive |
| CCCCCCn1c(SCCC)nc2c1c(=O)[nH]c(=O)n2C | inconclusive [inhibitor, full curve, poor fit] |
| CCOC1(OCC)N=C(N)C2(C#N)C(c3cccc(C)c3)C12C#N (stereo unspecified) | inconclusive [inhibitor, partial curve] |
| CCOC(=O)C(Cc1ccccc1)NC(=O)CCc1c(C)nc2ncnn2c1C (stereo unspecified) | inactive |
| O=c1ccnc(Sc2ncccc2[N+](=O)[O-])[nH]1 | inconclusive [inhibitor, partial curve] |
| O=C(O)c1ccc(-c2ccccc2Cl)o1 | inconclusive [inhibitor, partial curve, poor fit] |
| Cc1ccc(N2C(=O)CN(Cc3cccs3)C2=S)cc1C | inconclusive [inhibitor, partial curve, poor fit] |
| CCN(CCCNC(=O)C1CCCN(S(=O)(=O)c2cnc[nH]2)C1)c1ccccc1 (stereo unspecified) | inconclusive [inhibitor, partial curve] |
| O=C1NC(=O)N(Cc2ccccc2Cl)C(=O)/C1=C/c1cccs1 | inactive |
| Cc1cc(NC(=O)CSc2nc3c(cc2C#N)CCC3)no1 | inconclusive [inhibitor, full curve, poor fit] |
| COc1ccc(C(NC(=O)C(C)C)c2c(O)ccc3ccccc23)cc1 (stereo unspecified) | inconclusive [inhibitor, single point] |
| Cc1ccc(C(C[N+](=O)[O-])c2c(-c3ccccc3O)[nH][nH]c2=O)cc1 (stereo unspecified) | inconclusive [inhibitor, partial curve] |
| CC(C)Oc1ncnc2c1[nH]c1ccccc12 | inactive |
| Cc1cc(C)n2nc(SCc3nnc(-c4cccs4)o3)nc2n1 | inconclusive [inhibitor, partial curve] |
| O=C(Nc1cc(Cl)ccc1-n1cncn1)c1cccs1 | inconclusive [inhibitor, full curve, poor fit] |
| CCOC(=O)N1CCC(NS(=O)(=O)c2cc(Br)cc3c2N(C(=O)CC)CC3)CC1 | inconclusive [inhibitor, full curve, poor fit] |
| CCOc1cccc(C(=O)Nc2cccc(-c3nnc(-c4ccc(C)cc4)o3)c2)c1 | inconclusive [inhibitor, full curve, poor fit] |
| Cc1cc(=O)oc2cc(OCC(=O)NCC3CCC(C(=O)O)CC3)ccc12 (stereo unspecified) | inconclusive [inhibitor, full curve, poor fit] |
| COC(=O)c1sc(N2C(=O)c3oc4ccccc4c(=O)c3C2c2ccc(O)cc2)nc1C (stereo unspecified) | inconclusive [inhibitor, single point] |

| Structure (SMILES) | Potency |
| --- | --- |
| Cc1nn2c(CN(C(=O)CN3CCOCC3)c3ccccc3)nnc2c2ccccc12 | inactive |
| O=C(Cn1nnc(-c2ccccc2)n1)NC1CCS(=O)(=O)C1 (stereo unspecified) | inconclusive [inhibitor, full curve] |
| CCOC(=O)CSc1nc(C(C)(C)C)cc(C(F)(F)F)c1C#N | inactive |
| O=C(O)COc1ccc2nsnc2c1Cl | inconclusive [inhibitor, full curve, poor fit] |
| CCOC(=O)c1c(-c2ccc(C)cc2)csc1NC(=S)NC(=O)c1ccccc1 | inactive |
| COc1cc(CCC(=O)OCC(=O)Nc2sccc2C(N)=O)cc(OC)c1OC | inactive |
| Cc1ccc(S(=O)(=O)NCCc2cn3nc(C)c(C)nc3n2)cc1C | inactive |
| CCOC(=O)c1cnn(Cc2ccc(C)cc2)c1N | inconclusive [inhibitor, full curve] |
| CCOc1ccc(C(=O)Oc2cc(C)[nH]c(=O)c2[N+](=O)[O-])cc1 | inconclusive [inhibitor, full curve, poor fit] |
| CN(Cc1ccccc1)Cc1nc2c(c(=O)n(C)c(=O)n2C)n1Cc1ccc(Cl)cc1 | inconclusive [inhibitor, full curve, poor fit] |
| CCOc1ccc(CCn2c(-c3ccco3)nc3ccccc3c2=O)cc1OCC | inactive |
| Cc1cccc(NC(=S)NCCc2ccc(S(N)(=O)=O)cc2)c1C | inconclusive [inhibitor, full curve] |
| CCn1c(=O)[nH]c2cc(C(=O)N3CCN(c4ccccc4)CC3)ccc2c1=O | inconclusive [inhibitor, full curve, poor fit] |
| Cc1csc(SCC(=O)Nc2nc3ccccc3s2)n1 | inconclusive [inhibitor, full curve, poor fit] |
| Cc1cc(N2CCN(C)CC2)n2nc(-c3ccc(Cl)cc3)nc2n1 | inconclusive [inhibitor, single point] |
| CC(=O)Nc1ccc(N=NN2CCOCC2)cc1 | inconclusive [inhibitor, single point] |
| CC(=O)c1ccc(OCCCC(=O)N2CCN(S(=O)(=O)c3ccc(C(C)C)cc3)CC2)cc1 | inconclusive [inhibitor, full curve, poor fit] |
| Cc1cccc(Nc2nnc(SCC(=O)N(C)C3CCS(=O)(=O)C3)s2)c1C (stereo unspecified) | inactive |
| CCN(CC(=O)Nc1ccccc1C(F)(F)F)C(=O)c1ccccc1SCC(=O)N1CCCC1 | inconclusive [inhibitor, partial curve, poor fit] |
| CC(C)(C)NC(=O)C(=O)NNC(=O)c1cccc([N+](=O)[O-])c1 | inconclusive [inhibitor, full curve, poor fit] |
| O=C(COC(=O)C1CCC1)Nc1ccc(OC(F)F)cc1 | inconclusive [inhibitor, partial curve, poor fit] |
| COc1ccc(/C=C2\SC(=O)N(CCNC(=O)C3=COCCO3)C2=O)cc1 | inconclusive [inhibitor, full curve, poor fit] |

| Structure (SMILES) | Potency |
| --- | --- |
| Cc1cc(C)c2c(-n3cccc3)c(C(=O)NCc3cccc(F)c3)sc2n1 | inactive |
| O=C(CSc1n[nH]c(-c2ccco2)n1)Nc1ccc(Br)cc1 | inconclusive [inhibitor, full curve, poor fit] |
| CN(C)S(=O)(=O)c1cccc(C(=O)Nc2ccc(Cl)cn2)c1 | inconclusive [inhibitor, full curve, poor fit] |
| COCc1cccc(C2=CC(=O)C[C@H](c3ccc(OC)cc3)C2)c1 | inactive |
| CN1C(=O)/C(=C\c2ccc(N(C)C)cc2)OC1=S | inconclusive [inhibitor, full curve] |
| CC1(C(=O)OCC(=O)Nc2nnc(-c3ccccc3)o2)CC1(Cl)Cl (stereo unspecified) | inconclusive [inhibitor, full curve] |
| C/C(=N\NC(=O)c1nnn(-c2nonc2N)c1-c1ccccc1)c1ccccc1O | inconclusive [inhibitor, partial curve, poor fit] |
| Cc1ccccc1OCC(=O)NCCN(C)C | inconclusive [inhibitor, full curve] |
| COC(=O)c1ccc2nc(Nc3nc4c(F)cc(F)cc4s3)sc2c1 | inactive |
| CC(=O)N1c2ccc(S(=O)(=O)NCC3CCC(C(=O)Nc4ccc(C)c(C)c4)CC3)cc2CC1C (stereo unspecified) | inactive |
| O=C([C@H](O)c1ccccc1)N1CCC[C@H]1CO | inconclusive [inhibitor, partial curve, poor fit] |
| O=C(Nc1ccc(Nc2ccccc2)cc1)c1ccc(Cl)c([N+](=O)[O-])c1 | inconclusive [inhibitor, full curve, poor fit] |
| CCOC(=O)C1CCN(S(=O)(=O)c2cnc[nH]2)CC1 | inconclusive [inhibitor, full curve, poor fit] |
| c1ccc(-c2noc(-c3cccnc3)n2)cc1 | inactive |
| CCCC(CCC)C(=O)Nc1ccc2c(c1)N(C(=O)CN1CCN(C)CC1)c1ccccc1CC2 | inactive |
| Cc1ccc(OCC(=O)Nc2ccc(NC(=O)c3cccs3)cc2)c(C)c1 | inconclusive [inhibitor, partial curve, poor fit] |
| COc1ccc(C(=O)Nc2ccc(Cl)cc2C(=O)NCc2ccco2)cc1 | inconclusive [inhibitor, single point] |
| OC(COc1ccc2ccccc2c1Br)Cn1ccnc1 (stereo unspecified) | inconclusive [inhibitor, single point] |
| CCCn1c(SCC(=O)NC(C)c2ccccc2)n[nH]c1=O (stereo unspecified) | inconclusive [inhibitor, full curve] |
| CCOC(=O)/C(=N/Nc1ccc(Cl)cc1)Sc1nnnn1-c1ccc(C)cc1 | inconclusive [inhibitor, partial curve, poor fit] |
| CCC1CCCCN1c1nc(-c2cccc(OC)c2O)nc2ccccc12 (stereo unspecified) | inconclusive [inhibitor, full curve, poor fit] |
| O=C(NCCOC(=O)c1ccncc1)c1ccccc1 | inconclusive [inhibitor, single point] |
